These results are taken from PMC12820563, “FoxP3 forms a head-to-head dimer in vivo and stabilizes its multimerization on adjacent microsatellites”.

This is one part of the list.

The experiment addresses T1, MBP-FoxP1dN (Mus musculus, UniProt P58462 326-579).
T1 sequence: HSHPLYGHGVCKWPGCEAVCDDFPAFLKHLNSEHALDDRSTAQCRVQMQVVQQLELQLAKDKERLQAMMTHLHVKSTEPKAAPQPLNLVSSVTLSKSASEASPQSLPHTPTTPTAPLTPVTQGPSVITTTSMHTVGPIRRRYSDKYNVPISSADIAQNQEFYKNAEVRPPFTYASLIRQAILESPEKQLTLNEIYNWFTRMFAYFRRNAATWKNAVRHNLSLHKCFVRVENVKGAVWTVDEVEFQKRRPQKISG
As to the kind of experiment: PD-seq (MBP pull-down with sequencing); 20 mM Tris-HCl pH 7.5, 100 mM NaCl, 1.5 mM MgCl2, 0.4 uM protein, 0.1 uM dsDNA library, 30 min, room temperature, amylose pull-down; high values mean tight binding. The conditions noted are these: protein: recombinant; tags: His6-MBP; chain copies: 2; dsDNA, one strand shown. In outline:
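E. coli-expressed mouse FoxP3 or FoxP1 fragment, N-terminus removed and tagged with His6-MBP, was used at 0.4 µM against 0.1 µM of a Klenow-filled degenerate double-stranded DNA library. After 30 min at room temperature in Tris pH 7.5 buffer with NaCl and MgCl2, complexes were pulled down on amylose resin and washed three times. Binding is pull-down over input reads-per-million enrichment from pooled replicates of the proteinase K-released, PCR-barcoded, Illumina-sequenced DNA.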
Take “GATGATTGTTCTCCCAGCTGATGAATTCACTGTATCGAGTAAACAAATTTTCCTAATCTTTCTGTTCAAGCGCCATCTAC”: the binding signal was 1.09 RPM ratio (pull-down/input).
Next, “GATGATTGTTCTCCCAGCTGATGAATTGCTCGCGTCGAGTAAACAAATTTTCCTAATCTTTCTGTTCAAGCGCCATCTAC”: 1.03 RPM ratio (pull-down/input); “GATGATTGTTCTCCCAGCTGATGAATTGGCCGAATCGAGTAAACAAATTTTCCTAATCTTTCTGTTCAAGCGCCATCTAC”: 0.859 RPM ratio (pull-down/input).
To “GATGATTGTTCTCCCAGCTGATGAATTGGTCCGTTCGAGTAAACAAATTTTCCTAATCTTTCTGTTCAAGCGCCATCTAC” belongs 0.877 RPM ratio (pull-down/input); to “GATGATTGTTCTCCCAGCTGATGAATTCTATTCATCGAGTAAACAAATTTTCCTAATCTTTCTGTTCAAGCGCCATCTAC”, 0.915 RPM ratio (pull-down/input); to “GATGATTGTTCTCCCAGCTGATGAATTGCGTCAATCGAGTAAACAAATTTTCCTAATCTTTCTGTTCAAGCGCCATCTAC”, 1.25 RPM ratio (pull-down/input).
For “GATGATTGTTCTCCCAGCTGATGAATTCTCTCGCTCGAGTAAACAAATTTTCCTAATCTTTCTGTTCAAGCGCCATCTAC”, the binding signal is 0.825 RPM ratio (pull-down/input).
Next, “GATGATTGTTCTCCCAGCTGATGAATTCCGGCAGTCGAGTAAACAAATTTTCCTAATCTTTCTGTTCAAGCGCCATCTAC”: 0.802 RPM ratio (pull-down/input).
Next, “GATGATTGTTCTCCCAGCTGATGAATTCGAACTTTCGAGTAAACAAATTTTCCTAATCTTTCTGTTCAAGCGCCATCTAC”: 0.83 RPM ratio (pull-down/input).
With “GATGATTGTTCTCCCAGCTGATGAATTTTGCGAATCGAGTAAACAAATTTTCCTAATCTTTCTGTTCAAGCGCCATCTAC”, the binding signal was 0.989 RPM ratio (pull-down/input).
As for “GATGATTGTTCTCCCAGCTGATGAATTATACTTGTCGAGTAAACAAATTTTCCTAATCTTTCTGTTCAAGCGCCATCTAC”, the binding signal is 1.05 RPM ratio (pull-down/input).
Take “GATGATTGTTCTCCCAGCTGATGAATTTTGCCAGTCGAGTAAACAAATTTTCCTAATCTTTCTGTTCAAGCGCCATCTAC”: the binding signal is 0.866 RPM ratio (pull-down/input).
With “GATGATTGTTCTCCCAGCTGATGAATTAACTAGGTCGAGTAAACAAATTTTCCTAATCTTTCTGTTCAAGCGCCATCTAC”, the binding signal was 0.8 RPM ratio (pull-down/input).
To “GATGATTGTTCTCCCAGCTGATGAATTACCAGTGTCGAGTAAACAAATTTTCCTAATCTTTCTGTTCAAGCGCCATCTAC” belongs 0.952 RPM ratio (pull-down/input); to “GATGATTGTTCTCCCAGCTGATGAATTATGGATCTCGAGTAAACAAATTTTCCTAATCTTTCTGTTCAAGCGCCATCTAC”, 0.856 RPM ratio (pull-down/input); to “GATGATTGTTCTCCCAGCTGATGAATTCTGAGTATCGAGTAAACAAATTTTCCTAATCTTTCTGTTCAAGCGCCATCTAC”, 0.9 RPM ratio (pull-down/input).
Next, “GATGATTGTTCTCCCAGCTGATGAATTTGAGGGGTCGAGTAAACAAATTTTCCTAATCTTTCTGTTCAAGCGCCATCTAC”: 0.748 RPM ratio (pull-down/input); “GATGATTGTTCTCCCAGCTGATGAATTTGAAGATTCGAGTAAACAAATTTTCCTAATCTTTCTGTTCAAGCGCCATCTAC”: 0.925 RPM ratio (pull-down/input).
